From PubChem BioAssay AID1963576 (National Center for Advancing Translational Sciences (NCATS), 2024)
Out of some 46,000 compounds screened, about 60 (0.1%) were called active. Inconclusive results (about 3%) are left out. Calls come from the whole dose curve; as a rule, active = well fitted inhibition curve with a large enough effect; inconclusive = small, poorly fitted or top-dose-only effect; inactive = no such curve, though single readings can be large or run the other way. The list shows a part of the results.

Experiment: Primary qHTS assay for Inhibitors of ovarian cancer metastasis using an organotypic tumor microenvironment (TME) model.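 For activity change, negative = inhibition: plate controls were DMSO wells for no effect and tomatine positive control wells for full effect.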 Note: nearly all actives have a fitted effect of over 65% in size.
Details: SKOV3ip1-GFP adhesion/invasion on 3D omental model, fluorescence; series mostly up to 45.8 µM; activity change, negative = inhibition: at the top concentration
Outline: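 Primary human omental fibroblast/mesothelial 3D culture pre-formed 48 h. SKOV3ip1-GFP cells added with compounds (0.36-46 umol/L), incubated 2 h RT/16 h 37 C, fixed; GFP cells quantified at 488/509 nm.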

Activity change, negative = inhibition, inactive:
Cc1ccccc1Nc1c(-c2ccsc2)nc2c(C)cccn12 -4.53%
O=C(NCCc1ccccc1)c1ccc(Cn2c(SCc3ccc(F)cc3)nc3cccnc32)cc1 5.59%
CCN(Cc1ccc(OC)cc1)c1ccc(-c2nc(-c3ccncc3)no2)cc1[N+](=O)[O-] -5.21%
Cc1ccccc1NC(=O)Cn1c(=O)n(Cc2ccc3c(c2)OCO3)c(=O)c2oc3ccccc3c21 -9.76%
CCCCN(c1ccccc1)c1ncnc2c1cnn2-c1ccc(Cl)cc1 8.88%
Cc1ccc(CN(Cc2ccco2)c2cnc(S(C)(=O)=O)nc2C(=O)Nc2ccc(Br)cc2)o1 -11.7%
Cc1ccc(-c2nn3c(C)nnc3c3ccccc23)cc1S(=O)(=O)NCCO -3.04%
O=C(NCCc1ccc(Cl)cc1)c1ccc2nc(Cc3ccccc3)oc2c1 13.5%
Cc1cc(C)c(NC(=O)CSc2nc(=O)n(Cc3ccco3)c3c2CCC3)c(C)c1 10.5%
COc1cccc(-c2nc(SCc3cc(=O)c4cc(Cl)ccc4[nH]3)n[nH]2)c1 -4.52%
CS(=O)(=O)c1ncc(N(Cc2ccccc2)Cc2ccco2)c(C(=O)Nc2cccc(C(F)(F)F)c2)n1 8.91%
CC(C)Cn1c(=O)c2sccc2n2c(CCCC(=O)Nc3ccc(Cl)cc3)nnc12 1.24%
CCOC(=O)c1c(NC(=O)c2cc(-c3ccccc3)on2)sc2c1CCCC2 -21.7%
CC(C)(C)C1CCc2c(sc(NC(=O)c3ccccc3F)c2C(=O)N2CCCCC2)C1 (stereo not given) 6.61%
Cc1ccc(Cl)cc1NC(=O)NC1COc2ccccc2C1 (stereo not given) -3.78%
CC(C)Oc1ccc(CNC(=O)Cc2ccc(NC(=O)N3CCSc4ncccc43)cc2)cc1 -10.2%
Cc1ccc2c(c1)c(=O)c(S(=O)(=O)c1ccc(F)cc1)cn2CC(=O)Nc1ccc2c(c1)OCO2 1.45%
CCN(CC)C(=O)c1sc2c(c1C)c(=O)n(-c1ccc(C)c(C)c1)c(=O)n2CC(=O)Nc1ccc(F)cc1 -5.92%
O=C(Cc1ccc(Cl)cc1)Nc1ccc2oc(-c3ccccc3)nc2c1 4.08%
Cc1cc2c(cc1S(=O)(=O)Nc1cccc(C(F)(F)F)c1)OCCN2C 2.84%
CCc1ccc(CN(Cc2ccco2)C(=O)c2cc(-c3ccc(Cl)cc3)on2)cc1 18.7%
Cc1ccc2[nH]c(CSc3nnc(NC(=O)COc4ccccc4F)s3)cc(=O)c2c1 -5.61%
Cc1cccc(Cn2c(CNS(=O)(=O)c3ccc(Cl)s3)nc3cccnc32)c1 -3.47%
Cc1ccc(C)c(OCCOCCn2c(-c3ccc(Br)cc3)nc3ccccc3c2=O)c1C -12.2%
Cn1c(=O)oc2cc(S(=O)(=O)NCCC(=O)Nc3ccc(F)c(Cl)c3)ccc21 -8.82%
CC(C)CN(CCNC(=O)c1cc(=O)[nH]c2ccc(S(=O)(=O)N3CCCCCC3)cc12)CC(C)C -2.82%
Cc1ccc(-n2ncc(C(=O)NCc3cccs3)c2C2CCN(C(=O)OC(C)(C)C)CC2)cc1C 2.51%
CCC(Cn1nnc2ccccc2c1=O)NC(=O)Nc1cc(Cl)ccc1OC (stereo not given) -7.38%
CCOc1ccc(NC(=O)CCCN2C(=O)C(c3ccccc3)Oc3cccnc32)cc1 (stereo not given) -4.44%
CC(=O)N1CCCc2cc(S(=O)(=O)N(C)CC(=O)Nc3ccc(F)c(Cl)c3)ccc21 17%
CC1CCCCN1C(=O)CSc1nnc(-c2cccc(Cl)c2)o1 (stereo not given) 3.96%
Cc1ccc(Cl)cc1NC(=O)/C(C#N)=C/c1c(C)n(Cc2ccccc2)c2ccccc12 1.24%
Fc1ccc(-c2csc(-c3nc(-c4ccc(Br)s4)cs3)n2)cc1 6.52%
Cc1cccc(-c2noc(CN(C(=O)c3ccc(C)c(C)c3)C(C)C)n2)c1 -2.46%
Cc1ccc(NC(=O)c2ncn(-c3ccccc3)n2)c(Cl)c1 3.63%
Cc1csc2nc(-c3cccc(NC(=O)c4cccc(F)c4)c3)cn12 -2.99%
CCN(CC)c1ccc2cc(-c3nnc(-c4cccc(Cl)c4)o3)c(=O)oc2c1 4.17%
Cc1ccc(C(=O)c2oc3ccccc3c2NC(=O)c2nc(S(C)(=O)=O)ncc2Cl)cc1F -14.3%
COc1cccc(NC(=O)CSc2nc(-c3ccccc3)nc3c2Cc2cc(Cl)ccc2O3)c1 -5.39%
O=C1NC(=O)C(=Cc2ccc(-c3ccc(F)cc3O)o2)S1 -1.85%
COc1ccccc1NC(=O)N(Cc1ccco1)C1CCN(C(C)=O)CC1 -1.14%
O=C(c1nc(-c2ccc(Cl)cc2)n2c1CCCCC2)N1CCN(c2ccc(F)cc2)CC1 -1.24%
CCCOc1ccc(OC(=O)c2sc3ncn(Cc4cccc(F)c4)c(=O)c3c2C)cc1 1.14%
CCOc1cc(C#N)c(NC(=O)c2ccc(OC)c(S(=O)(=O)N3CCCC3)c2)cc1OCC -1.13%
O=S(=O)(c1ccccc1)c1nc(-c2ccc(F)cc2)oc1N1CCOCC1 0.936%
CCOC(=O)c1cccc(NC(=O)CC(c2ccc(F)cc2)N2Cc3ccccc3C2=O)c1 (stereo not given) -5.25%
CCc1ccc(-c2[nH]c3c(c2-c2sc(C)c(C(=O)OC)c2O)c(=O)n(C)c(=O)n3C)cc1 -8.35%
O=C(Cc1ccccc1)Nc1c(C(=O)Nc2ccccc2F)oc2ccccc12 1.45%
COc1cccc(CNC(=O)CCC(=O)N2Cc3cccc(OC)c3Oc3ncccc32)c1OC -2.84%
CCCNC(=O)CCc1c(C)nc2nc(-c3cc(OC)cc(OC)c3)nn2c1C -0.264%
COc1ccc(Br)cc1CNC(=O)C1CCCCN1S(=O)(=O)c1ccc(F)cc1 (stereo not given) -25.7%
COc1ccc(NC(=O)c2ccc(COc3ccccc3OC)o2)cc1OC -1.27%
N=C(N)c1ccc2cc(OC(=O)c3ccc(N=C(N)N)cc3)ccc2c1 -1.92%
CC(=O)N1CCCc2cc(S(=O)(=O)N(C)CC(=O)Nc3ccc(Cl)cc3C)ccc21 0.745%
Cc1ccc(Nc2nc3ccccc3c3nncn23)cc1C -0.939%
Cc1c(NC(=O)c2ccccc2F)cccc1-c1nc2cccnc2s1 -6.35%
COc1ccc(N(C)C(=O)CCS(=O)(=O)c2cccc3nsnc23)cc1 45.5%
COc1cccc2c1C(=O)c1c(O)c3c(c(O)c1C2=O)C[C@@](O)(C(=O)CO)C[C@H]3O[C@H]1C[C@H](N)[C@H](O)[C@H](C)O1 5.1%
CCOc1ccc(CCNC(=O)CN(c2ccc(C)cc2)S(=O)(=O)N(C)C)cc1OCC 4%
COc1ccc(CNC(=O)C(C(C)C)N2Cc3ccccc3C2=O)cc1 (stereo not given) 6.13%
Cc1ccc(C)c(NC(=O)c2cc(S(=O)(=O)NCCC3=CCCCC3)ccc2F)c1 -3.72%
COc1ccc2c(c1)CCc1c(C(=O)Nc3c(C)nn(Cc4ccc(C)cc4)c3C)noc1-2 9.9%
Cc1ccc(-n2c(=O)c3c(c4cc(C)ccc4n3C)n(CC(=O)Nc3cc(C)cc(C)c3)c2=O)cc1 6.41%
Cc1ccc(-c2onc(C)c2C)cc1S(=O)(=O)NC1CCCCC1 -8.98%
COC(=O)c1nnn(CC(=O)Nc2ccc(Br)c(C)c2)c1N -8.11%
CC1Cn2cc(C(=O)Nc3cccc(C(F)(F)F)c3)c(=O)c3c(Cl)ccc(c32)O1 (stereo not given) -7.71%
CCNc1c(NC(=O)c2cc(OCC)c(OCC)c(OCC)c2)c(=O)oc2ccccc12 9.97%
CCOC(=O)c1c(-c2ccc(OC)cc2)oc2ccc(OCc3ccc(C(=O)OC)cc3)cc12 -6.57%
CCN1CCN(CCCNC(=O)c2ccc3c(c2)sc2nc(-c4ccc(OC)cc4)cn23)CC1 -9.9%
COc1cccc(CNC(=O)CCn2cccn2)c1 1.6%
CC(NC(=O)C(=O)Nc1c2c(nn1-c1ccc(F)cc1)CSC2)c1ccccc1 (stereo not given) -1.88%
CCOC(=O)c1c(NC(=O)COc2ccc(F)cc2)sc2c1CCC(C)C2 (stereo not given) -9.36%
CCC(=O)N1CCc2cc(Br)cc(S(=O)(=O)NCCc3ccccc3)c21 15.7%
Cc1cc(C)c(Cn2c(C(O)c3ccccc3)nc3ccccc32)c(C)c1 (stereo not given) 4.27%

outcome, inactive:
CCC(=O)N1CCc2cc(S(=O)(=O)CCC(=O)N3CCN(c4cccc(C)c4)C(C)C3)ccc21 (stereo not given)
Cc1ccc(-c2cn3cccc(C)c3n2)cc1NS(=O)(=O)c1ccccc1
Cc1cc(C)cc(C(=O)Nc2cc(C(F)(F)F)ccc2N2CCN(c3ccccc3)CC2)c1
COc1ccc(OC)c(CCNC(=O)CCn2c(=O)c3cccn3c3cccnc32)c1
CC(=O)Nc1ccc(S(=O)(=O)NCC2CCC(C(=O)NCCCOC(C)C)CC2)cc1 (stereo not given)
CCOc1cc(C(=O)OCc2cc(=O)n3c(C)csc3n2)cc(OCC)c1OCC
Cc1cccc(N(CC(=O)NC(C)c2ccccc2)S(=O)(=O)c2ccccc2)c1C (stereo not given)
CCOc1ccc(-c2nonc2NC(=O)c2ccccc2C)cc1
CCOc1ccc(-c2cc3c(=O)n(CC(=O)Nc4c(C)cccc4C)ccn3n2)cc1
Cc1cccc(C2N3CC4(C(C)C)CN2CC(C(C)C)(C3)C4=O)c1 (stereo not given)
COc1ccc(C)cc1N(C)C(=O)c1sc2nc3n(c(=O)c2c1C)CCCCC3
CCCCN(C)CCNC(=O)Cn1ncc2c3ccccc3n(CCC)c2c1=O
CCCCCn1c(=O)[nH]c2cc(C(=O)NCc3ccc(C)cc3)ccc2c1=O
CCOc1ccc(CCNC(=O)C2=C(C)C(=O)OC23CCC(C)CC3)cc1OCC (stereo not given)
Cc1ccc(OCc2nc3ccccc3n2Cc2ccccc2Cl)cc1
CCn1cc(C(=O)NCc2ccccc2)c(=O)c2cc(S(=O)(=O)N3CCCCCC3)ccc21
O=C(Cn1ncc2c(=O)oc3ccccc3c21)NCc1ccc(Cl)cc1
COc1cccc2sc(N(Cc3cccnc3)C(=O)C3COc4ccccc4O3)nc12 (stereo not given)
O=c1c(S(=O)(=O)c2ccccc2)cn(Cc2ccc(F)cc2)c2cc(N3CCCCC3)c(F)cc12
CCCN(CCC)C(=O)C1CCN(c2ncnc3c2nc2n3CCCCC2)CC1
O=C(NCCCN1CCN(c2ccccc2F)CC1)c1nnc(Cc2ccc(Cl)cc2Cl)o1
